Results reported in PubChem BioAssay AID686971 (National Center for Advancing Translational Sciences (NCATS), 2013).
The whole screen tested about 360,000 compounds, of which about 7,500 (2.1%) were called active. The inconclusive results got no clear call from the source; some entries with a clear call stand among them for comparison. Calls follow the shape of the dose curve; as a rule, active = well fitted cell-killing curve with a large enough effect; inconclusive = small, poorly fitted or top-dose-only effect, or effect the other way, or another doubt; inactive = no such curve, though single readings can be large or run the other way. Potencies of inconclusive entries are left out as doubtful fits.

Test: qHTS for induction of synthetic lethality in tumor cells producing 2HG: qHTS for the HT-1080-IDH1KD cell line;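 as to activity, negative = toxicity: 0% = DMSO wells and -100% = cell-free medium wells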
Details: HT-1080 IDH1 knockdown viability, ATP luminescence, 48 h; activity, negative = toxicity: at 46.1 µM (top of the series) unless noted
Method in brief: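 HT-1080-IDH1KD cells (IDH1 knocked down), 750/well in RPMI with 5% FBS, treated with compound 48 h at 37 degrees C. Viability by CellTiter-Glo luminescence, normalised to DMSO and no-cell wells; concentration-response curves classed.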
Potency is read from the fitted curve at half-maximal effect; tags tell the direction and shape of the fitted curve.

SMILES	Potency	activity, negative = toxicity
CC(=O)Oc1ccc(-c2ccc(C(=O)OCC(=O)N(C)CC(=O)Nc3ccccc3Cl)cc2)cc1	inconclusive [cytotoxic, single point]	
O=C(CSCc1nc2ccccc2[nH]1)N1CCN(c2ccc(F)cc2)CC1	inconclusive [cytotoxic, single point]	
COc1cccc(/C=N/NC(=O)c2ccc(=O)n(C)c2)c1O	inconclusive [cytotoxic, full curve]	
O=C1/C(=C/c2cccnc2)CCC/C1=C\c1cccnc1	inconclusive [cytotoxic, partial curve, poor fit]	
O=C1CCC(OCc2ccccc2)CCN1[C@H](CSc1ccccc1)Cc1ccccc1 (stereo not given in full)	inconclusive [cytotoxic, single point]	
O=Cc1cc(N=Nc2cccc(C(=O)O)c2)ccc1O	active: 14.6 µM	
COc1ccc2c(c1)C1OCCC1C(c1ccco1)N2 (stereo not given)	inconclusive [cytotoxic, single point]	
O=c1[nH]cc(C=NNc2ccccc2)c(=O)[nH]1	inconclusive [cytotoxic, partial curve]	
Cc1nc(C)c(-c2csc(Nc3cccnc3)n2)s1	inconclusive [cytotoxic, single point]	
COc1cc(-c2nc(Cc3ccccc3Cl)no2)cc(OC)c1OC	inconclusive [cytotoxic, single point]	
CCN(c1ccccc1)S(=O)(=O)c1ccc(OC)c(NC(=O)CNCCc2ccccc2)c1	inconclusive [cytotoxic, single point]	
CC(C)(C)n1nc(-c2ccc(Cl)cc2)c2c(N)ncnc21	inconclusive [cytotoxic, partial curve]	
COc1ccccc1NC(=O)Cc1ccc(-c2ccccc2)cc1	inconclusive [cytotoxic, partial curve, poor fit]	
COC(=O)[C@@H](Cc1ccccc1)N(Cc1ccccc1)S(=O)(=O)N(Cc1ccccc1)[C@H](Cc1ccccc1)C(=O)OC	inactive	
COc1ccc(-c2noc(N3CCC(C(=O)Nc4ccc(F)cc4F)CC3)n2)cc1	inactive	
CCCCSc1nc(C)cc(NC(=S)Nc2ccc(OC)cc2)n1	inconclusive [cytotoxic, single point]	
N#Cc1nc(COc2ccc(-c3ccccc3)cc2)oc1NCCCN1CCOCC1	inconclusive [cytotoxic, single point]	
CCc1ccc(NC(=O)CNC(=O)Cn2ccc3ccccc3c2=O)cc1		inconclusive: 6.12% [cytotoxic]
COc1cccc(Nc2nc(NCCO)c3ccccc3n2)c1	inconclusive [cytotoxic, single point]	
Oc1ccc(/C=N/Nc2nccnc2Cl)cc1	active: 25.9 µM	
CCCCC[C@H](C)N1C[C@@H](COCc2ccccc2)Oc2cc(N3CCC[C@H]3CO)ccc2S1(=O)=O	inconclusive [cytotoxic, single point]	
COc1ccc(C(=O)NC(=S)NC(C)C)cc1Br		inconclusive: -66.4%

SMILES	Potency	activity, negative = toxicity
CC(=O)Oc1c(Cl)cc(Cl)cc1/C=C/c1ccc2ccccc2n1	inconclusive [cytotoxic, single point]	
CCn1c(N)[n+](CC(=O)Nc2ccc(SC(F)F)cc2)c2ccccc21	inconclusive [cytotoxic, single point]	
COc1cccc(C(=O)/C=C/c2ccc(N3CCCCC3)c([N+](=O)[O-])c2)c1	inconclusive [cytotoxic, single point]	
CCCCCn1c(SCc2ccncc2)nc2cc(C(=O)NCc3ccco3)ccc2c1=O	inconclusive [cytotoxic, single point]	
Cc1cc(NC(=O)c2cccnc2)ccc1Br	inactive	
COCCn1c(NC(=S)NC(=O)C23CC4CC(CC(C4)C2)C3)cc(=O)[nH]c1=O	inconclusive [cytotoxic, single point]	
Cc1cc(OCCCCCNCCO)cc(C)c1Cl	active: 15.8 µM	
COc1cc(C(O)c2nc(-c3csc4ccccc34)cs2)ccc1F (stereo not given)	inconclusive [cytotoxic, single point]	
COc1cc(CN(C)CC2CCCN(CCc3ccccc3F)C2)cc(Cl)c1OC (stereo not given)	inconclusive [cytotoxic, single point]	
COC(=O)C1=C(Nc2ccc(C)cc2)C=C(C)C(C(=O)OC)C1c1ccc(F)cc1 (stereo not given)	active: 11.2 µM	
CC(=O)Nc1ccc(Nc2c([N+](=O)[O-])cc(S(C)(=O)=O)cc2[N+](=O)[O-])cc1		inconclusive: -31.9% [cytotoxic]
CCN(C(=O)COC(=O)c1cc([N+](=O)[O-])ccc1N1CCOCC1)c1ccccc1	inconclusive [cytotoxic, partial curve]	
CCO[C@H]1OC(C(=O)NC2CC2)=C[C@@H](C2CCCCC2)[C@@H]1CCCO	inactive	
Cc1cccc(C(=O)Nc2nnc(Cc3c[nH]c4ccccc34)s2)c1	inconclusive [cytotoxic, single point]	
COc1ccc(NC(=O)[C@@H]2CC=C[C@@H]3CCN(Cc4ccc(Cl)c(Cl)c4)C(=O)[C@@H]32)cc1	inconclusive [cytotoxic, single point]	
CCCCC[C@H](C)N1C[C@H](COCc2ccccc2)Oc2cc(N3CCC[C@@H]3CO)ccc2S1(=O)=O	inconclusive [cytotoxic, single point]	
CCN(CC)CCCNc1ccc2ncn3c4ccc(O)cc4c(=O)c1c23	inconclusive [cytotoxic, partial curve]	
CCN1C(=O)C(=O)N(CC(=O)NC(C)CCc2ccccc2)C1=O (stereo not given)	inactive	
O=C(c1ccc(Cl)c(Cl)c1)N1CCC(=O)N(C(COCc2ccccc2)Cc2ccccc2)CC1 (stereo not given)	inconclusive [cytotoxic, single point]	
COc1ccc(NC(=O)CN(C)C(=O)/C=C/c2ccc(S(=O)(=O)N3CCCCCC3)cc2)cc1	inconclusive [cytotoxic, single point]	
COc1ccc(CNCCC(c2ccc(F)cc2)c2ccc(OC(C)C)cc2)cc1OC (stereo not given)	inconclusive [cytotoxic, single point]	
OCCN(CCO)c1cc2c3ccccc3ccc2c2ccccc12	inconclusive [cytotoxic, single point]	

SMILES	Potency	activity, negative = toxicity
C/C(=N\NC(=O)COc1cccc(C)c1)c1ccc2ccccc2c1O	inconclusive [cytotoxic, single point]	
O=C(Cn1cnc2sc(-c3ccccc3)cc2c1=O)NCc1ccccc1	active: 6.31 µM	
CC(C)C[C@H]1CN(CCCC[C@H]2CNC(=O)C(=O)N2Cc2ccccc2)C(=O)C(=O)N1CC1CCCCC1	inactive	
CS(=O)(=O)c1ccc2nc(NC(=O)Nc3cccc(Cl)c3)sc2c1	active: 11.2 µM	
CC(C)c1ccc(CN2CCC2(C)C(=O)Nc2cnc3ccccc3c2)cc1 (stereo not given)	inconclusive [cytotoxic, single point]	
O=C(/C=C/c1ccco1)Nc1cccc(C(=O)Nc2ccccc2C(=O)O)c1	inactive	
CCCC(=O)Nc1cc(C)c(NC(=O)c2ccco2)cn1	inactive	
CCOC(=O)C1=CCN(S(=O)(=O)c2ccc(C)cc2)C1c1ccc(Br)cc1 (stereo not given)	inconclusive [cytotoxic, single point]	
CCOc1cc(C(=O)Nc2cnccn2)cc(OCC)c1OCC	active: 10 µM	
CC(OC(=O)[C@@H]1CCCN1C(=O)c1cccs1)C(=O)Nc1cccc([N+](=O)[O-])c1 (stereo not given in full)	inactive	
Cc1cc(C)c(CN2CCC(n3nccc3NC(=O)CCOc3ccccc3)CC2)cc1C	inconclusive [cytotoxic, single point]	
CC(CCC(C)C(C)(C)C)[C@@H]1CC[C@H]2C3C[C@H](OS(O)(=S)=S)[C@H]4C[C@H](OS(O)(=S)=S)[C@@H](OS(O)(=S)=S)C[C@]4(C)[C@H]3CC[C@]12C (stereo not given in full) (tested in a mixture with another compound)	inconclusive [cytotoxic, partial curve]	
COc1cc2nc(CN3CCN(S(=O)(=O)c4ccc(Br)cc4)CC3)[nH]c(=O)c2cc1OC	inconclusive [cytotoxic, single point]	
CCCc1c(-c2ccccc2)ncn1Cc1ccccc1OC	inconclusive [cytotoxic, single point]	
COc1cccc(CN(C)C(=O)c2ccc(OCC(=O)Nc3cccc(C(F)(F)F)c3)c(OC)c2)c1	inconclusive [cytotoxic, partial curve]	
CNC(=O)[C@H]1O[C@@H](n2cnc3c(NCc4cccc(I)c4)ncnc32)[C@H](O)[C@@H]1O	inactive	
O=C(Cc1cccs1)Nc1nc2ccccc2s1	inactive	
CCC(C)N(C(=O)CSc1nnnn1-c1ccccc1OC)C1CCS(=O)(=O)C1 (stereo not given)	inactive	
CCn1ncc(C2=NOC(C(=O)Nc3cnn(C45CC6CC(CC(C6)C4)C5)c3)C2)c1C (stereo not given)	inconclusive [cytotoxic, single point]	
N#CC1=C(N)Oc2cc(Nc3ccccc3)ccc2C1c1ccncc1 (stereo not given)	inconclusive [cytotoxic, partial curve]	
O=C(CSc1nc2ccc([N+](=O)[O-])cc2[nH]1)NC1CCCCC1	inconclusive [cytotoxic, single point]	
